“And” between values parts separate entries of the source, which are not always exact repeats. Identical values can stand only once. The inconclusive results got no clear call from the source; some entries with a clear call stand among them for comparison. For some assays here: Potencies of inconclusive entries are doubtful fits and often do not repeat. The source made the active and inactive calls. Unless noted, calls come from the whole dose curve; as a rule, active = well fitted curve in the direction sought with a large enough effect in the repeat runs; inconclusive = weak or mixed curves; inactive = no such curve, though single readings can be large; an effect the other way counts as inactive or inconclusive.
Key:
[1] = target: Glucocorticoid receptor (Homo sapiens) (UniProt P04150); experiment: qHTS assay to identify small molecule antagonists of the glucocorticoid receptor (GR) signaling pathway (AID 720692; active = well fitted inhibition curve with a large enough effect in the signal ratio in the repeat runs, not every such curve was filed as active; inconclusive = weak or mixed curves, or effect the other way; inactive = no such curve, though single readings can be large or run the other way; the % refers to the signal ratio; note: % is set by controls: 0 for no effect and ±100 for the full control effect); details: GR-bla HeLa, beta-lactamase FRET ratio, dexamethasone-stimulated, 18 h; activity change, negative = inhibition: at 58.5 µM (top of the series) unless noted
Procedure, shortened: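 Read-out: beta-lactamase FRET substrate fluorescence, 2 h at room temperature, in HeLa cells stably carrying a GRE-driven bla reporter. Compounds were co-incubated with 5 nM dexamethasone agonist (final) for 18 h at 37 C.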

[2] = qHTS assay to identify small molecule antagonists of the thyroid receptor (TR) signaling pathway - cell viability counter screen (AID 743064); details: GH3.TRE-Luc viability, CellTiter-Fluor, 24 h; activity change, negative = cytotoxic: at 70.3 µM (top of the series) unless noted; note: nearly all actives have a fitted effect of over 50% in size; note: potency is the fitted concentration of half-maximal effect
Procedure, shortened: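 Plate GH3.TRE-Luc cells; incubate 4 h at 37 °C; add compound, then T3 to 1 nM final; incubate 23.5 h; add CellTiter-Fluor; incubate 30 min at 37 °C, 5% CO2; read fluorescence.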

[3] = target: Peroxisome proliferator-activated receptor gamma (Homo sapiens) (UniProt P37231); experiment: qHTS assay to identify small molecule antagonists of the peroxisome proliferator-activated receptor gamma (PPARg) signaling pathway (AID 743191; calls by dose curve; note: nearly all actives have a fitted effect of over 30% in size; note: potency is the fitted concentration of half-maximal effect; for ratio activity, negative = inhibition: % is set by controls: 0 for no effect and ±100 for the full control effect); details: HEK293H PPARg-UAS-bla, beta-lactamase ratio, antagonist, 17 h; ratio activity, negative = inhibition: at 62.6 µM (top of the series) unless noted
Procedure, shortened: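 GeneBLAzer PPARg UAS-bla HEK293H cells, 5 h post-plating, exposed to compounds 17 h at 37C. LiveBLAzer B/G FRET substrate added for 1 h at room temperature; beta-lactamase reporter read by fluorescence intensity.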

[4] = qHTS assay for small molecule agonists of the antioxidant response element (ARE) signaling pathway (AID 743202; active = well fitted activation curve with a large enough effect in the signal ratio in the repeat runs, not every such curve was filed as active; inconclusive = weak or mixed curves, or effect the other way; inactive = no such curve, though single readings can be large or run the other way; the % refers to the signal ratio; note: % is set by controls: 0 for no effect and ±100 for the full control effect); details: HepG2 ARE-bla reporter, beta-lactamase FRET, 16 h; activation: at 73.3 µM (top of the series) unless noted
Procedure, shortened: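 HepG2 ARE-bla cells; 16 h treatment at 37 C; FRET-based beta-lactamase fluorescence read after 2 h substrate incubation at room temperature.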

[5] = qHTS assay to identify small molecule antagonists of the progesterone receptor (PR) signaling pathway - cell viability counter screen (AID 1346798); note: nearly all actives have a fitted effect of over 50% in size; note: potency is the fitted concentration of half-maximal effect
Procedure, shortened: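 Same-well multiplex: after 16 hr at 37C with compound and R5020 stimulation, HEK293T cells carrying a UAS-bla reporter received LiveBLAzer substrate (2 hr RT), then CellTiter-Glo (30 min RT) for luminescent viability.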

[6] = qHTS assay to identify small molecule agonists of the progesterone receptor (PR) signaling pathway - cell viability counter screen (AID 1346799; calls by dose curve; note: potency is the fitted concentration of half-maximal effect; nearly all actives have a fitted effect of over 45% in size)
Procedure, shortened: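 Counter screen for cytotoxicity: compound-treated PR-UAS-bla HEK293T cells (16 hr, 37C, 5% CO2) were assayed with CellTiter-Glo, luminescence measured after 30 min at room temperature.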

[7] = target: Cytochrome P450 1A2 (Homo sapiens) (UniProt P05177); experiment: Cytochrome P450 Family 1 Subfamily A Member 2 (CYP1A2) small molecule antagonists: luciferase reporter qHTS assay (AID 1671199); note: nearly all actives have a fitted effect of over 50% in size; note: potency is the fitted concentration of half-maximal effect
Procedure, shortened: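 Luminescence readout (relative luminescence units) after luciferin detection reagent, 20 min RT. Preceded by 1 h room-temperature CYP1A2 reaction with NADPH regeneration solution following 10 min compound preincubation with enzyme and proluciferin substrate. Furafylline positive control.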

[8] = qHTS assay for identifying genotoxic compounds that show differential cytotoxicity against isogenic chicken DT40 cell lines with known DNA damage response pathways - Rev3 mutant cell line (AID 743014); details: chicken DT40 Rev3-/- viability, CellTiter-Glo, 40 h; activity, negative = cytotoxicity: at 68.4 µM (top of the series); note: potency is the fitted concentration of half-maximal effect; nearly all actives have a fitted effect of over 55% in size
[9] = qHTS assay to identify small molecule antagonists of the peroxisome proliferator-activated receptor delta (PPARd) signaling pathway - cell viability counter screen (AID 743213); details: PPARd-bla HEK293H viability, CellTiter-Glo luminescence, 17 h; viability change, negative = cytotoxic: at 62 µM (top of the series) unless noted; note: nearly all actives have a fitted effect of over 50% in size; note: potency is the fitted concentration of half-maximal effect
Procedure, shortened: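 Same-well viability: cells pre-incubated 5 h, dosed with compound plus 300 nM L165041, kept 17 h at 37 C, FRET substrate 2 h RT, then CellTiter-Glo 30 min RT and luminescence.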

[10] = qHTS assay to identify small molecule agonists of the farnesoid-X-receptor (FXR) signaling pathway - cell viability counter screen (AID 743218); details: FXR-bla HEK293T viability, CellTiter-Glo luminescence, 16 h; viability change, negative = cytotoxic: at 62.6 µM (top of the series); note: potency is the fitted concentration of half-maximal effect; nearly all actives have a fitted effect of over 45% in size
Procedure, shortened: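 Luminescence from CellTiter-Glo, read after 30 min at RT, reports viability of GeneBLAzer FXR-UAS-bla HEK 293T cells treated 16 h with compounds in the wells used for the beta-lactamase reporter.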

[11] = qHTS assay to identify small molecule antagonists of the sonic hedgehog signaling (Shh) pathway (AID 1259369; calls by dose curve; note: nearly all actives have a fitted effect of over 45% in size; note: potency is the fitted concentration of half-maximal effect)
Procedure, shortened: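 Luminescence readout: firefly Luc under Gli1 response element in 3T3Gli1-Luc cells (NIH/3T3 clone). Antagonist mode, stimulation by conditioned medium; compound exposure 24hr at 37 C, 5% CO2.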

[12] = target: Cytochrome P450 2D6 (Homo sapiens) (UniProt P10635); experiment: Cytochrome P450 Family 2 Subfamily D Member 6 (CYP2D6) small molecule antagonists: luciferase reporter qHTS assay (AID 1671196)
Procedure, shortened: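 Luminogenic proluciferin substrate, CYP2D6 enzyme; 10 min RT preincubation with compound, NADPH regeneration system added, 1 h RT. Stop/detection reagent, 20 min RT, luminescence read (RLU). Signal proportional to CYP activity.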

[13] = target: Cytochrome P450 2C19 (Homo sapiens) (UniProt P33261); experiment: Cytochrome P450 Family 2 Subfamily C Member 19 (CYP2C19) small molecule antagonists: luciferase reporter qHTS assay (AID 1671197); note: nearly all actives have a fitted effect of over 65% in size; note: potency is the fitted concentration of half-maximal effect
Procedure, shortened: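 Compounds were tested on CYP2C19 activity via proluciferin conversion to luciferin. The 37C, 1 h reaction followed NADPH addition; detection reagent stopped it.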

[14] = qHTS assay for small molecule disruptors of the mitochondrial membrane potential (AID 720635); details: HepG2 mitochondrial membrane potential, Mito-MPS dye ratio; ratio activity, negative = MMP loss: at 83.2 µM (top of the series) unless noted; note: potency is the fitted concentration of half-maximal effect
Procedure, shortened: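 HepG2 cells exposed to compound 1 hr at 37C, then Mito-MPS dye 30 min. Ratio read of aggregate (540/590 nm) versus monomer (490/535 nm) fluorescence.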

[15] = target: Vitamin D3 receptor (Homo sapiens) (UniProt P11473); experiment: qHTS assay to identify small molecule antagonists of the vitamin D receptor (VDR) signaling pathway (AID 743223; active = well fitted inhibition curve with a large enough effect in the signal ratio in the repeat runs, not every such curve was filed as active; inconclusive = weak or mixed curves, or effect the other way; inactive = no such curve, though single readings can be large or run the other way; the % refers to the signal ratio; note: % is set by controls: 0 for no effect and ±100 for the full control effect); details: VDR-UAS-bla HEK293T, beta-lactamase FRET ratio, 16 h; activity change, negative = inhibition: at 61 µM (top of the series) unless noted
Procedure, shortened: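 Fluorescence from LiveBLAzer B/G FRET substrate, read after 2 h at room temperature, reflects beta-lactamase reporter activity in VDR-bla cells treated 16 h at 37C with compounds and agonist 1alpha,25-dihydroxyvitamin D3 (3 nM final).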

[16] = target: Cytochrome P450 2C9 (Homo sapiens) (UniProt P11712); experiment: Cytochrome P450 Family 2 Subfamily C Member 9 (CYP2C9) small molecule antagonists: luciferase reporter qHTS assay (AID 1671198)
Procedure, shortened: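 P450-Glo proluciferin substrate with CYP2C9 enzyme; 10 min RT preincubation, then NADPH regeneration 1 h at 37C; luciferin detection reagent 20 min RT, luminescence in relative luminescence units.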

[17] = qHTS assay to identify small molecule agonists of the RXR signaling pathway - cell viability counter screen (AID 1159529)
Procedure, shortened: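 Cell viability is measured by CellTiter-Glo luminescence, 30 min at room temperature, in wells already read for beta-lactamase. Engineered HEK 293T cells (RXR-alpha-UAS-bla) are dosed 16 hr at 37 C. Tetraoctyl ammonium bromide serves as positive control.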
Tags give direction and shape of the fitted curve or compound fluorescence and quenching.

Sequence of UniProt P04150 (P04150 whole entry, looked up): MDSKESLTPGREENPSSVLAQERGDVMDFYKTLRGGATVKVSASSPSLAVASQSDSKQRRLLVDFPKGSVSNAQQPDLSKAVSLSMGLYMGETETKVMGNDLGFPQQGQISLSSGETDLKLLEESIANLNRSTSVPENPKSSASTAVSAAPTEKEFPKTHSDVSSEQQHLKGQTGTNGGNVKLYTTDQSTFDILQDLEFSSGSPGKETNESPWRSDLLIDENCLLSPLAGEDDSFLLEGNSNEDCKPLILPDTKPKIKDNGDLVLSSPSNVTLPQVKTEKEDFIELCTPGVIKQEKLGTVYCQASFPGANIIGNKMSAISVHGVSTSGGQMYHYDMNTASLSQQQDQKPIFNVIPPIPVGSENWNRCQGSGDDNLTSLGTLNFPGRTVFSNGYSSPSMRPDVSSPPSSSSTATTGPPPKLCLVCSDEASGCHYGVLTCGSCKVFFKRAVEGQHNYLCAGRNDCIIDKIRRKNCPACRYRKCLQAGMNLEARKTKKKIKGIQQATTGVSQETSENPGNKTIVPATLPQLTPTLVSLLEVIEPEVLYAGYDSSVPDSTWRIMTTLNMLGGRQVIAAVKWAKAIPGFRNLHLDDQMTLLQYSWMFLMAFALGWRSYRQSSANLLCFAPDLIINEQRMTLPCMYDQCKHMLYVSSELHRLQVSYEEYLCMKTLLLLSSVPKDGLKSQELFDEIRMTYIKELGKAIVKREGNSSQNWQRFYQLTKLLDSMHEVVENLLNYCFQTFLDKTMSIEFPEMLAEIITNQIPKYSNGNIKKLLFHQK
Sequence of UniProt P37231 (P37231 whole entry, looked up): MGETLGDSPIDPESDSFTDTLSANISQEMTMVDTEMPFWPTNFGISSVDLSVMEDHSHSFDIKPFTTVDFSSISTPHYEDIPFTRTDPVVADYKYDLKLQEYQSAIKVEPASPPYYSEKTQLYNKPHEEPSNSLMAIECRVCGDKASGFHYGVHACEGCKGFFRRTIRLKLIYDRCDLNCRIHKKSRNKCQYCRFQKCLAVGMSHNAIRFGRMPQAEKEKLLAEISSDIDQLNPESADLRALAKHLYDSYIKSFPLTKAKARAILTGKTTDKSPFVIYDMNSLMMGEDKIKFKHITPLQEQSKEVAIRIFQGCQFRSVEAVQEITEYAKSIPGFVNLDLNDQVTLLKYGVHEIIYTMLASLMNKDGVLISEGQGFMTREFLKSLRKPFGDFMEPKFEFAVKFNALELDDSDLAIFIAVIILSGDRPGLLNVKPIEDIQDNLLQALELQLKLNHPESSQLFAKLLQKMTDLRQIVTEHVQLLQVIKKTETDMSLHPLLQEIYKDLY
Sequence of UniProt P05177 (P05177 whole entry, looked up): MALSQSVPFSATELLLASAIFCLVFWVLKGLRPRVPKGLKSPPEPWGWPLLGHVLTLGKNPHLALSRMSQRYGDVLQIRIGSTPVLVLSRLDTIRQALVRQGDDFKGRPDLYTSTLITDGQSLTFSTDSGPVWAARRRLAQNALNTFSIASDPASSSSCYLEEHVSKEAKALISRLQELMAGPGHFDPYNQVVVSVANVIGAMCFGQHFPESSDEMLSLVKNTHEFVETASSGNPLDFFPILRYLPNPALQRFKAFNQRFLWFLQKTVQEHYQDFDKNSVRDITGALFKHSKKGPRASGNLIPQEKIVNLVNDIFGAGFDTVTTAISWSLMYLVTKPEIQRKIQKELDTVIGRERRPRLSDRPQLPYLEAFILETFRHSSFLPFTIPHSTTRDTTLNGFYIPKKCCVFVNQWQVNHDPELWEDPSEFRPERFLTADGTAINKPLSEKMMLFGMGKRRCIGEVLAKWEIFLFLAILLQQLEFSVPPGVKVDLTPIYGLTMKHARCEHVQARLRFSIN
Sequence of UniProt P11473 (P11473 whole entry, looked up): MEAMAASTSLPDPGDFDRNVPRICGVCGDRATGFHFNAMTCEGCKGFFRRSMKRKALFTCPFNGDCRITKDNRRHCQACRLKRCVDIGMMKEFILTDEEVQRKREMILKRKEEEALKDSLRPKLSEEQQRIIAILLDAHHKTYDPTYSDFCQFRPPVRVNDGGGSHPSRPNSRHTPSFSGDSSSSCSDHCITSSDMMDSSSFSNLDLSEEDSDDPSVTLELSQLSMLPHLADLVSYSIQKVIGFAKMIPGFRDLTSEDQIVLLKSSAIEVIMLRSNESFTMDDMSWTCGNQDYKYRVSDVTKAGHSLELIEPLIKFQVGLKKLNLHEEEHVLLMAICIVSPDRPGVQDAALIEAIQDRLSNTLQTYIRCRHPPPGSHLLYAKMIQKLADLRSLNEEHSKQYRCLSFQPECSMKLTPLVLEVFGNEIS
Sequence of UniProt P33261 (P33261 whole entry, looked up): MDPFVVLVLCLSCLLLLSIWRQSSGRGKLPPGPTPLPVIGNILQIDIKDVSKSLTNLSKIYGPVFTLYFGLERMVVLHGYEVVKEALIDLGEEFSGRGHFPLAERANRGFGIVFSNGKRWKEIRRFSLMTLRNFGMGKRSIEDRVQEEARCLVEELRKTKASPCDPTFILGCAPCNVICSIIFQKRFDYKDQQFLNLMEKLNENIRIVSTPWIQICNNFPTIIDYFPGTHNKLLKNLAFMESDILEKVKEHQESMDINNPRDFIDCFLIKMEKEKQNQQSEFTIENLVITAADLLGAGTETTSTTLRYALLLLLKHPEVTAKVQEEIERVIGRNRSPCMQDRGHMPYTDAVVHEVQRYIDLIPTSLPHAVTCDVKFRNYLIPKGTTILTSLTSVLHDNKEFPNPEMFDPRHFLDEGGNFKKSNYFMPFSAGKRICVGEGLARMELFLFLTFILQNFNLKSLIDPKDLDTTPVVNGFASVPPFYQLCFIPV
Sequence of UniProt P11712 (P11712 whole entry, looked up): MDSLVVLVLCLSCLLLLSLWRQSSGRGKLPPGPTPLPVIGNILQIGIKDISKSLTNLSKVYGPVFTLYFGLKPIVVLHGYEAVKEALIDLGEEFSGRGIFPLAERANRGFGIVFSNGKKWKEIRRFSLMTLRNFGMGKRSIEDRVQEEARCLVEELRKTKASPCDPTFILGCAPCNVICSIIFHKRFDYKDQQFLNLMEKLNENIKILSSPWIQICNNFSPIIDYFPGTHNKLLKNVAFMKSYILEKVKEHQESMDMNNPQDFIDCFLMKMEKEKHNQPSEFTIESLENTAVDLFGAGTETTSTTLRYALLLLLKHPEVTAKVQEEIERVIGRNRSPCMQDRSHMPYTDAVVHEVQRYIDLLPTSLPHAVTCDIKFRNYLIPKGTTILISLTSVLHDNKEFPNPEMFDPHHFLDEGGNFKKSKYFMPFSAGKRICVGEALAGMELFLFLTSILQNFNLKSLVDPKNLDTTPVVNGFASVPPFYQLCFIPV
Sequence of UniProt P10635 (P10635 whole entry, looked up): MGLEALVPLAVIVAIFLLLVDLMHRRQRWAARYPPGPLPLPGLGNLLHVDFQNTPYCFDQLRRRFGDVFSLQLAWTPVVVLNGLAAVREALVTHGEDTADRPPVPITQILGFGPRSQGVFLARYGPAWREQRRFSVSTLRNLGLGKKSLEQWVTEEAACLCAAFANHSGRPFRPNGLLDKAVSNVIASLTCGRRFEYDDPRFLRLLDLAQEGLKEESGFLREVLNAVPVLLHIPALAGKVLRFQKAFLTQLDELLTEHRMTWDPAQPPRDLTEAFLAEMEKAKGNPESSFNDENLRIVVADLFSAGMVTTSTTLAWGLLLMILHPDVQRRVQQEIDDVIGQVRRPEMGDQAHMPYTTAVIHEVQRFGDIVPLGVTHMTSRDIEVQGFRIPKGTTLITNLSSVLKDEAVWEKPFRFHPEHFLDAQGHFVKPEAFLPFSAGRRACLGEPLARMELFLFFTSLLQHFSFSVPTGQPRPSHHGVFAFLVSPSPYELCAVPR

CCN[C@H](C)Cc1cccc(C(F)(F)F)c1
inactive: Potency [1] | Potency [3]
inconclusive: Potency [2] 60.9 µM [cytotoxic, single point] | activation [4] -1.76% | Potency [5] 24.2 µM [cytotoxic, partial curve] | Potency [6] 27.2 µM [cytotoxic, partial curve, poor fit] | Potency [7] 39.8 µM [inhibitor, partial curve]

CN[C@@H](C)[C@H](O)c1ccccc1
inconclusive: Potency [8] 26.6 µM [rising, partial curve, poor fit] | Potency [10] 26.6 µM [rising, partial curve] | Potency [12] 15.5 µM [inhibitor, full curve]
inactive: Potency [2] | Potency [9] | Potency [11] | Potency [13]

CCSC(=O)N(CC)C1CCCCC1
inactive: Potency [4]
inconclusive: ratio activity, negative = MMP loss [14] -12.8% | activity change, negative = inhibition [1] 17.2% | Potency [3] 17.4 µM [activator, partial curve] | Potency [9] 1.1 µM [cytotoxic, single point] | activity change, negative = inhibition [15] -20.4% | Potency [13] 71 µM [inhibitor, single point] | Potency [16] 39.9 µM [inhibitor, partial curve]

CC(CC(C(N)=O)(c1ccccc1)c1ccccc1)N(C)C (stereo not given)
inactive: Potency [15] | Potency [7]
inconclusive: activation [4] -17.8% | Potency [11] 8.41 µM [inhibitor, full curve]

Cc1nnc2n1-c1sc(CCC(=O)N3CCOCC3)cc1C(c1ccccc1Cl)=NC2
inactive: Potency [4] | Potency [9] | Potency [7]
inconclusive: Potency [14] 11.9 µM [activator, partial curve] and 11.9 µM [activator, full curve] | activity change, negative = inhibition [1] -7.86% | ratio activity, negative = inhibition [3] 5.53% | activity change, negative = inhibition [15] 14.4% | Potency [17] 1.5 nM [rising, full curve, poor fit]

CCCOC(=O)c1cncn1C(C)c1ccccc1 (stereo not given)
inactive: Potency [5]
